# Source: the supplement of paper PMC4604168 (melanoma cell lines)
# Some of the results follow. Repeats are few or missing, and single values can be far off.
# Tested on: SkMel28
# Test: cell count relative to DMSO control; melanoma cells; higher = more viable cells
# Conditions: library dose: standard library concentration; 72 h
# 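Also: cells treated in 1,536-well plates, then fixed and DAPI-stained, with nuclei counted from automated high-throughput microscope images.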
row,Compound,cell count [%]
1,"CC1(C)CCC(c2ccc(Cl)cc2)=C(CN2CCN(c3ccc(C(=O)NS(=O)(=O)c4ccc(N[C@H](CCN5CCOCC5)CSc5ccccc5)c(S(=O)(=O)C(F)(F)F)c4)cc3)CC2)C1 + CCCCCCCCCCCC1=C(O)C(=O)C=C(O)C1=O [Embelin] (first compound 2 µM, partner dose 6 µM)",71.3
2,"Cc1ccc(Nc2nccc(N(C)c3ccc4c(C)n(C)nc4c3)n2)cc1S(N)(=O)=O [Pazopanib] + NCC(=O)Nc1ccc(-n2nc(C(F)(F)F)cc2-c2ccc3c(ccc4ccccc43)c2)cc1 [OSU03012] (first compound 2 µM, partner dose 5 µM)",18
3,"O=C(/C=C/c1cccnc1)NCCCCC1CCN(C(=O)c2ccccc2)CC1 + Cn1cc(/C=C2\C(=O)Nc3cccnc32)c2ccccc21 [GW441756] (first compound 0.05 µM, partner dose 2 µM)",75.6
4,"O=C(/C=C/c1cccnc1)NCCCCC1CCN(C(=O)c2ccccc2)CC1 + CCCCCCCCCCCC1=C(O)C(=O)C=C(O)C1=O [Embelin] (first compound 0.05 µM, partner dose 6 µM)",78.1
5,"O=C(/C=C/c1cccnc1)NCCCCC1CCN(C(=O)c2ccccc2)CC1 + Cc1cc(Nc2cc(N3CCN(C)CC3)nc(/C=C/c3ccccc3)n2)n[nH]1 [ENMD2076] (first compound 0.05 µM, partner dose 0.2 µM)",60.2
6,"O=C(/C=C/c1cccnc1)NCCCCC1CCN(C(=O)c2ccccc2)CC1 + COC(=O)c1sccc1S(=O)(=O)Nc1ccc(Nc2ccccc2)cc1OC [GSK0660] (first compound 0.05 µM, partner dose 5 µM)",75.8

# Tested on: SkMel2
# Test: as above
# Conditions: library dose: standard library concentration; 72 h
row,Compound,cell count [%]
1,"CC1(C)CCC(c2ccc(Cl)cc2)=C(CN2CCN(c3ccc(C(=O)NS(=O)(=O)c4ccc(N[C@H](CCN5CCOCC5)CSc5ccccc5)c(S(=O)(=O)C(F)(F)F)c4)cc3)CC2)C1 + Cc1cc([N+](=O)[O-])ccc1NS(=O)(=O)c1cc(Cl)ccc1Cl [FH535] (first compound 2 µM, partner dose 5 µM)",72.4
2,"O=C(/C=C/c1cccnc1)NCCCCC1CCN(C(=O)c2ccccc2)CC1 + CCc1ccc(CCOc2ccc(CC3SC(=O)NC3=O)cc2)nc1 [pioglitazone] (first compound 0.05 µM, partner dose 10 µM)",22.6
3,"Cc1ccc(Nc2nccc(N(C)c3ccc4c(C)n(C)nc4c3)n2)cc1S(N)(=O)=O [Pazopanib] + COc1cc(N2CCC(N3CCN(C)CC3)CC2)ccc1Nc1ncc(Cl)c(Nc2ccccc2S(=O)(=O)C(C)C)n1 [NVP-TAE684] (first compound 2 µM, partner dose 0.4 µM)",75.5
4,"O=C(/C=C/c1cccnc1)NCCCCC1CCN(C(=O)c2ccccc2)CC1 + COc1ccc(-c2ccc3c(N4CCOCC4)nc(N4C[C@@H](C)O[C@@H](C)C4)nc3n2)cc1CO [KU0063794] (first compound 0.05 µM, partner dose 0.1 µM)",27.2
5,"Cc1ccc(Nc2nccc(N(C)c3ccc4c(C)n(C)nc4c3)n2)cc1S(N)(=O)=O [Pazopanib] + CCN(CC)CCCCNc1ncc2cc(-c3cc(OC)cc(OC)c3)c(NC(=O)NC(C)(C)C)nc2n1 [PD173074] (first compound 2 µM, partner dose 0.5 µM)",91.3
6,"CC1(C)CCC(c2ccc(Cl)cc2)=C(CN2CCN(c3ccc(C(=O)NS(=O)(=O)c4ccc(N[C@H](CCN5CCOCC5)CSc5ccccc5)c(S(=O)(=O)C(F)(F)F)c4)cc3)CC2)C1 + NCC(=O)Nc1ccc(-n2nc(C(F)(F)F)cc2-c2ccc3c(ccc4ccccc43)c2)cc1 [OSU03012] (first compound 2 µM, partner dose 5 µM)",5.87
7,"CC1(C)CCC(c2ccc(Cl)cc2)=C(CN2CCN(c3ccc(C(=O)NS(=O)(=O)c4ccc(N[C@H](CCN5CCOCC5)CSc5ccccc5)c(S(=O)(=O)C(F)(F)F)c4)cc3)CC2)C1 + Cc1cc(Nc2cc(N3CCN(C)CC3)nc(/C=C/c3ccccc3)n2)n[nH]1 [ENMD2076] (first compound 2 µM, partner dose 0.2 µM)",64.9
8,"Cc1ccc(Nc2nccc(N(C)c3ccc4c(C)n(C)nc4c3)n2)cc1S(N)(=O)=O [Pazopanib] + c1cc(-c2cnn3cc(-c4ccc(OCCN5CCCCC5)cc4)cnc23)ccn1 [Dorsomorphin] (first compound 2 µM, partner dose 2 µM)",90.2
9,"CC1(C)CCC(c2ccc(Cl)cc2)=C(CN2CCN(c3ccc(C(=O)NS(=O)(=O)c4ccc(N[C@H](CCN5CCOCC5)CSc5ccccc5)c(S(=O)(=O)C(F)(F)F)c4)cc3)CC2)C1 + CCc1ccc(CCOc2ccc(CC3SC(=O)NC3=O)cc2)nc1 [pioglitazone] (first compound 2 µM, partner dose 10 µM)",97
10,"Cc1ccc(Nc2nccc(N(C)c3ccc4c(C)n(C)nc4c3)n2)cc1S(N)(=O)=O [Pazopanib] + COC(=O)c1sccc1S(=O)(=O)Nc1ccc(Nc2ccccc2)cc1OC [GSK0660] (first compound 2 µM, partner dose 5 µM)",84.8
11,"Cc1ccc(Nc2nccc(N(C)c3ccc4c(C)n(C)nc4c3)n2)cc1S(N)(=O)=O [Pazopanib] + C#Cc1cccc(Nc2ncnc3cc(OCCOC)c(OCCOC)cc23)c1 [erlotinib] (first compound 2 µM, partner dose 4 µM)",67.5
12,"O=C(/C=C/c1cccnc1)NCCCCC1CCN(C(=O)c2ccccc2)CC1 + CN(NC(=O)CC(=O)NN(C)C(=S)c1ccccc1)C(=S)c1ccccc1 [STA4783] (first compound 0.05 µM, partner dose 0.03 µM)",27.9
13,"CC1(C)CCC(c2ccc(Cl)cc2)=C(CN2CCN(c3ccc(C(=O)NS(=O)(=O)c4ccc(N[C@H](CCN5CCOCC5)CSc5ccccc5)c(S(=O)(=O)C(F)(F)F)c4)cc3)CC2)C1 + O=C(O)C(=O)Nc1sc2c(c1C(=O)O)CCNC2 [TCS401] (first compound 2 µM, partner dose 8.33333 µM)",86.2
14,"Cc1ccc(Nc2nccc(N(C)c3ccc4c(C)n(C)nc4c3)n2)cc1S(N)(=O)=O [Pazopanib] + O=S(=O)(c1ccccc1)N(CC(F)(F)F)c1ccc(C(O)(C(F)(F)F)C(F)(F)F)cc1 [T0901317] (first compound 2 µM, partner dose 7 µM)",103
15,"O=C(/C=C/c1cccnc1)NCCCCC1CCN(C(=O)c2ccccc2)CC1 + COc1ccc(COc2ccc(Cc3cnc(N)nc3N)cc2OC)cc1 [GW2580] (first compound 0.05 µM, partner dose 5 µM)",19.5
16,"Cc1ccc(Nc2nccc(N(C)c3ccc4c(C)n(C)nc4c3)n2)cc1S(N)(=O)=O [Pazopanib] + CCCCCCCCCCCC1=C(O)C(=O)C=C(O)C1=O [Embelin] (first compound 2 µM, partner dose 6 µM)",79.4
17,"Cc1ccc(Nc2nccc(N(C)c3ccc4c(C)n(C)nc4c3)n2)cc1S(N)(=O)=O [Pazopanib] + O=c1cc(-c2cccc3c2Sc2ccccc2S3)oc(N2CCOCC2)c1 [KU55933] (first compound 2 µM, partner dose 5 µM)",108
18,"O=C(/C=C/c1cccnc1)NCCCCC1CCN(C(=O)c2ccccc2)CC1 + O=C(Nc1cccc(Cl)c1)Nc1ncc(CCNc2ncnc3ccsc23)s1 [SNS314] (first compound 0.05 µM, partner dose 0.004 µM)",38
19,"O=C(/C=C/c1cccnc1)NCCCCC1CCN(C(=O)c2ccccc2)CC1 + COc1cc(N2CCC(N3CCN(C)CC3)CC2)ccc1Nc1ncc(Cl)c(Nc2ccccc2S(=O)(=O)C(C)C)n1 [NVP-TAE684] (first compound 0.05 µM, partner dose 0.4 µM)",43.1
20,"Cc1ccc(Nc2nccc(N(C)c3ccc4c(C)n(C)nc4c3)n2)cc1S(N)(=O)=O [Pazopanib] + COc1cc2ncnc(Nc3ccc(Oc4ccccc4)cc3)c2cc1OC [SrcI1] (first compound 2 µM, partner dose 10 µM)",83.8
21,"Cc1ccc(Nc2nccc(N(C)c3ccc4c(C)n(C)nc4c3)n2)cc1S(N)(=O)=O [Pazopanib] + OCCn1cc(-c2cnc3nnn(Cc4ccc5ncccc5c4)c3n2)cn1 [PF04217903] (first compound 2 µM, partner dose 5 µM)",82.3
22,"Cc1ccc(Nc2nccc(N(C)c3ccc4c(C)n(C)nc4c3)n2)cc1S(N)(=O)=O [Pazopanib] + Cn1cc(/C=C2\C(=O)Nc3cccnc32)c2ccccc21 [GW441756] (first compound 2 µM, partner dose 2 µM)",104
23,"Cc1ccc(Nc2nccc(N(C)c3ccc4c(C)n(C)nc4c3)n2)cc1S(N)(=O)=O [Pazopanib] + OCc1c[nH]c2ccccc12 [Indole-3-carbinol] (first compound 2 µM, partner dose 4 µM)",102
24,"CC1(C)CCC(c2ccc(Cl)cc2)=C(CN2CCN(c3ccc(C(=O)NS(=O)(=O)c4ccc(N[C@H](CCN5CCOCC5)CSc5ccccc5)c(S(=O)(=O)C(F)(F)F)c4)cc3)CC2)C1 + COc1cc2c(Oc3ccc4[nH]c(C)cc4c3F)ncnc2cc1OCCCN1CCCC1 [cediranib] (first compound 2 µM, partner dose 2 µM)",90.4
